Experimental data taken from patent US8461176B2, “Enantiomerically enriched aryloazol-2-yl cyanoethylamino compounds, method of making and method of using thereof” (Merial Limited, priority 2008, dated 2013).
Some results were stated once for a whole list of compounds, not compound by compound. At least one structure is not confirmed: it was looked up by name or label, or the drawing left a doubt.

Legend:
Haemonchus contortus = assay: Method A: screening of activity against Haemonchus contortus L1 larvae in microtitre plate (development to L3 / motility); settings: 4 days assessment
[1] = tested on: Trichostrongylus colubriformis; assay: Method D: screening of activity against Trichostrongylus colubriformis L1 larvae in microtitre plate; settings: 4 days assessment

With `CC(C#N)(Cn1nc2ccccc2n1)NC(=O)c1ccc(SC(F)(F)F)cc1` (stereo not drawn) [Compound 1.005, N-[2-(2H-Benzotriazol-2-yl)-1-cyano-1-methylethyl]-4-trifluoromethylthiobenzamide] the motility inhibition (Haemonchus contortus; test concentration 0.15 ppm) was “at least 90%”.

With `Cc1ccc2nn(CC(C)(C#N)NC(=O)c3ccc(SC(F)(F)F)cc3)nc2c1` (stereo not drawn) [Compound 1.007, N-[1-Cyano-1-methyl-2-(5-methyl-2H-benzotriazol-2-yl)ethyl]-4-trifluoromethylthiobenzamide] the motility inhibition ([1]; test concentration 0.04 ppm) was “at least 90%” and the motility inhibition (Haemonchus contortus; test concentration 0.04 ppm) was “at least 90%”.

For `CC(C#N)(Cn1nc2ccc(C(F)(F)F)cc2n1)NC(=O)c1ccc(SC(F)(F)F)cc1` (stereo not drawn) [Compound 1.009, N-[1-Cyano-1-methyl-2-(5-trifluoromethyl-2H-benzotriazol-2-yl)ethyl]-4-trifluoromethylthiobenzamide], the motility inhibition (Haemonchus contortus; test concentration 0.15 ppm) was “at least 90%”.

`CC(C#N)(Cn1nc2cc(Cl)c(Cl)cc2n1)NC(=O)c1ccc(SC(F)(F)F)cc1` (stereo not drawn) [Compound 1.011, N-[1-Cyano-2-(5,6-dichloro-2H-benzotriazol-2-yl)-1-methylethyl]-4-trifluoromethylthiobenzamide] was tested, and the motility inhibition ([1]; test concentration 0.04 ppm) was “at least 90%”, the motility inhibition (Haemonchus contortus; test concentration 0.04 ppm) was “at least 90%” and the motility inhibition (Haemonchus contortus; test concentration 0.15 ppm) was “at least 90%”.

With `CC(C#N)(Cn1nc2cc(C(F)(F)F)cc(Cl)c2n1)NC(=O)c1ccc(SC(F)(F)F)cc1` (stereo not drawn) [Compound 1.015, N-[2-(4-Chloro-6-trifluoromethyl-2H-benzotriazol-2-yl)-1-cyano-1-methylethyl]-4-trifluoromethylthiobenzamide] the motility inhibition (Haemonchus contortus; test concentration 0.04 ppm) was “at least 90%”.

For `CC(C#N)(Cn1nc2ccc(C#N)cc2n1)NC(=O)c1ccc(SC(F)(F)F)cc1` (stereo not drawn) [Compound 1.017, N-[1-Cyano-2-(5-cyano-2H-benzotriazol-2-yl)-1-methylethyl]-4-trifluoromethylthiobenzamide], the motility inhibition (Haemonchus contortus; test concentration 0.15 ppm) was “at least 90%”.

In the case of `CC(C#N)(Cn1nc2ccc(Br)cc2n1)NC(=O)c1ccc(SC(F)(F)F)cc1` (stereo not drawn) [Compound 1.021, N-[2-(5-Bromo-2H-benzotriazol-2-yl)-1-cyano-1-methylethyl]-4-trifluoromethylthiobenzamide], the motility inhibition ([1]; test concentration 0.01 ppm) is reported as “at least 90%” and the motility inhibition (Haemonchus contortus; test concentration 0.01 ppm) is reported as “at least 90%”.

With `CC(C#N)(Cn1nc2cc(Cl)cc(C(F)(F)F)c2n1)NC(=O)c1ccc(SC(F)(F)F)cc1` (stereo not drawn) [Compound 1.038, N-[2-(6-Chloro-4-trifluoromethyl-2H-benzotriazol-2-yl)-1-cyano-1-methylethyl]-4-trifluoromethylthiobenzamide] the motility inhibition ([1]; test concentration 0.04 ppm) was “at least 90%” and the motility inhibition (Haemonchus contortus; test concentration 0.04 ppm) was “at least 90%”.

With `CC(C#N)(Cn1nc2cccc(Cl)c2n1)NC(=O)c1ccc(SC(F)(F)F)cc1` (stereo not drawn) [Compound 1.044, N-[2-(4-Chloro-2H-benzotriazol-2-yl)-1-cyano-1-methylethyl]-4-trifluoromethylthiobenzamide] the motility inhibition (Haemonchus contortus; test concentration 0.01 ppm) was “at least 90%”.

In the case of `CCC(C#N)(Cn1nc2ccc(Cl)cc2n1)NC(=O)c1ccc(SC(F)(F)F)cc1` (stereo not drawn) [Compound 1.048, N-{1-[(5-Chloro-2H-benzotriazol-2-yl)methyl]-1-cyanopropyl}-4-trifluoromethylthiobenzamide], the motility inhibition ([1]; test concentration 0.15 ppm) is reported as “at least 90%” and the motility inhibition (Haemonchus contortus; test concentration 0.04 ppm) is reported as “at least 90%”.

With `CC(C#N)(Cn1nc2cc(C(F)(F)F)cc(C#N)c2n1)NC(=O)c1ccc(SC(F)(F)F)cc1` (stereo not drawn) [Compound 1.055, N-[1-Cyano-2-(4-cyano-6-trifluoromethyl-2H-benzotriazol-2-yl)-1-methylethyl]-4-trifluoromethylthiobenzamide] the motility inhibition (Haemonchus contortus; test concentration 0.15 ppm) was “at least 90%”.

With `CC(C#N)(Cn1nc2c(Cl)cc(Cl)c(Cl)c2n1)NC(=O)c1ccc(SC(F)(F)F)cc1` (stereo not drawn) [Compound 1.065, N-[1-Cyano-1-methyl-2-(4,5,7-trichloro-2H-benzotriazol-2-yl)-ethyl]-4-trifluoromethylthiobenzamide] the motility inhibition ([1]; test concentration 0.01 ppm) was “at least 90%” and the motility inhibition (Haemonchus contortus; test concentration 0.0025 ppm) was “at least 90%”.

For `COc1ccc2nn(CC(C)(C#N)NC(=O)c3ccc(SC(F)(F)F)cc3)nc2c1` (stereo not drawn) [Compound 1.073, N-[1-cyano-2-(5-methoxy-2H-benzotriazol-2-yl)-1-methylethyl]-4-trifluoromethylthiobenzamide], the motility inhibition ([1]; test concentration 0.15 ppm) was “at least 90%”.

For `C=Cc1cc(Cl)cc2nn(CC(C)(C#N)NC(=O)c3ccc(SC(F)(F)F)cc3)nc12` (stereo not drawn) [Compound 1.076, N-[2-(6-Chloro-4-vinyl-2H-benzotriazol-2-yl)-1-cyano-1-methylethyl]-4-trifluoromethylthiobenzamide], the motility inhibition (Haemonchus contortus; test concentration 0.15 ppm) was “at least 90%”.

With `CC(C#N)(Cn1nc2c(Br)cc(Cl)c(Br)c2n1)NC(=O)c1ccc(SC(F)(F)F)cc1` (stereo not drawn) [Compound 1.085, N-[2-(5-Chloro-4,7-dibromo-2H-benzotriazol-2-yl)-1-cyano-1-methylethyl]-4-trifluoromethylthiobenzamide] the motility inhibition (Haemonchus contortus; test concentration 0.01 ppm) was “at least 90%”.

`CC(C#N)(Cn1nc2c(Cl)c(Br)c(Cl)c(Br)c2n1)NC(=O)c1ccc(SC(F)(F)F)cc1` (stereo not drawn) [Compound 1.089, N-[1-Cyano-2-(4,6-dibromo-5,7-dichloro-2H-benzotriazol-2-yl)-1-methylethyl]-4-trifluoromethylthiobenzamide] was tested, and the motility inhibition (Haemonchus contortus; test concentration 0.01 ppm) was “at least 90%”.

With `CC(C#N)(Cn1nc2c(Cl)cc(Cl)c(F)c2n1)NC(=O)c1ccc(SC(F)(F)F)cc1` (stereo not drawn) [Compound 1.091, N-[1-Cyano-2-(5,7-dichloro-4-fluoro-2H-benzotriazol-2-yl)-1-methylethyl]-4-trifluoromethylthiobenzamide] the motility inhibition (Haemonchus contortus; test concentration 0.01 ppm) was “at least 90%”.

In the case of `Cc1cc(Cl)c(C)c2nn(CC(C)(C#N)NC(=O)c3ccc(SC(F)(F)F)cc3)nc12` (stereo not drawn) [Compound 1.093, N-[2-(5-Chloro-4,7-dimethyl-2H-benzotriazol-2-yl)-1-cyano-1-methylethyl]-4-trifluoromethylthiobenzamide], the motility inhibition (Haemonchus contortus; test concentration 0.01 ppm) is reported as “at least 90%”.

In the case of `Cc1cc(Br)c(F)c2nn(CC(C)(C#N)NC(=O)c3ccc(SC(F)(F)F)cc3)nc12` (stereo not drawn) [Compound 1.095, N-[2-(5-bromo-4-fluoro-7-methyl-2H-benzotriazol-2-yl)-1-cyano-1-methylethyl]-4-trifluoromethylthiobenzamide], the motility inhibition (Haemonchus contortus; test concentration 0.0025 ppm) is reported as “at least 90%”.

`CC(C#N)(Cn1nc2c(Cl)cc(Cl)c(Cl)c2n1)NC(=O)c1ccc(S(F)(F)(F)(F)F)cc1` (stereo not drawn) [Compound 1.104, N-[1-Cyano-1-methyl-2-(4,5,7-trichloro-2H-benzotriazol-2-yl)-ethyl]-4-pentafluorothiobenzamide] was tested, and the motility inhibition (Haemonchus contortus; test concentration 0.01 ppm) was “at least 90%”.

For `CC(C#N)(Cn1cc2cc([N+](=O)[O-])ccc2n1)NC(=O)c1ccc(SC(F)(F)F)cc1` (stereo not drawn) [Compound 2.002, N-[1-Cyano-1-methyl-2-(5-nitro-2H-indazol-2-yl)ethyl]-4-trifluoromethylthiobenzamide], the motility inhibition (Haemonchus contortus; test concentration 0.04 ppm) was “at least 90%”.

For `CC(C#N)(Cn1cc2cc(Cl)cc(Cl)c2n1)NC(=O)c1ccc(SC(F)(F)F)cc1` (stereo not drawn) [Compound 2.005, N-[1-Cyano-2-(5,7-dichloro-2H-indazol-2-yl)-1-methylethyl]-4-trifluoromethylthiobenzamide], the motility inhibition (Haemonchus contortus; test concentration 0.04 ppm) was “at least 90%”.

In the case of `Cc1cc(Cl)cc2cn(CC(C)(C#N)NC(=O)c3ccc(SC(F)(F)F)cc3)nc12` (stereo not drawn) [Compound 2.007, N-[2-(5-Chloro-7-methyl-2H-indazol-2-yl)-1-cyano-1-methylethyl]-4-trifluoromethylthiobenzamide], the motility inhibition (Haemonchus contortus; test concentration 0.04 ppm) is reported as “at least 90%”.

In the case of `COc1c2cc(Cl)ccc2nn1CC(C)(C#N)NC(=O)c1ccc(SC(F)(F)F)cc1` (stereo not drawn) [Compound 2.013, N-[2-(5-Chloro-3-methoxy-2H-indazol-2-yl)-1-cyano-1-methylethyl]-4-trifluoromethylthiobenzamide], the motility inhibition (Haemonchus contortus; test concentration 0.04 ppm) is reported as “at least 90%”.

In the case of `CCOc1c2cc(Cl)ccc2nn1CC(C)(C#N)NC(=O)c1ccc(SC(F)(F)F)cc1` (stereo not drawn) [Compound 2.015, N-[2-(5-Chloro-3-ethoxy-2H-indazol-2-yl)-1-cyano-1-methylethyl]-4-trifluoromethylthiobenzamide], the motility inhibition (Haemonchus contortus; test concentration 0.15 ppm) is reported as “at least 90%”.

`COc1c2c(Cl)cc(Cl)cc2nn1CC(C)(C#N)NC(=O)c1ccc(SC(F)(F)F)cc1` (stereo not drawn) [Compound 2.022, N-[1-Cyano-2-(4,6-dichloro-3-methoxy-2H-indazol-2-yl)-1-methylethyl]-4-trifluoromethylthiobenzamide] was tested, and the motility inhibition (Haemonchus contortus; test concentration 0.15 ppm) was “at least 90%”.

In the case of `COc1c2ccc(Br)cc2nn1CC(C)(C#N)NC(=O)c1ccc(SC(F)(F)F)cc1` (stereo not drawn) [Compound 2.024, N-[2-(6-Bromo-3-methoxy-2H-indazol-2-yl)-1-cyano-1-methylethyl]-4-trifluoromethylthiobenzamide], the motility inhibition (Haemonchus contortus; test concentration 0.0025 ppm) is reported as “at least 90%”.

With `COc1c2ccc(C(F)(F)F)cc2nn1CC(C)(C#N)NC(=O)c1ccc(SC(F)(F)F)cc1` (stereo not drawn) [Compound 2.026, N-[1-Cyano-2-(3-methoxy-6-trifluoromethyl-2H-indazol-2-yl)-1-methylethyl]-4-trifluoromethylthiobenzamide] the motility inhibition (Haemonchus contortus; test concentration 0.0025 ppm) was “at least 90%”.

With `CCOc1c2ccc(Cl)cc2nn1CC(C)(C#N)NC(=O)c1ccc(SC(F)(F)F)cc1` (stereo not drawn) [Compound 2.028, N-[2-(6-Chloro-3-ethoxy-2H-indazol-2-yl)-1-cyano-1-methylethyl]-4-trifluoromethylthiobenzamide] the motility inhibition (Haemonchus contortus; test concentration 0.01 ppm) was “at least 90%”.

`CC(C#N)(Cn1cc2c(Cl)cc(Cl)c(Cl)c2n1)NC(=O)c1ccc(S(F)(F)(F)(F)F)cc1` (stereo not drawn) [Compound 2.058, N-[1-Cyano-1-methyl-2-(4,6,7-trichloro-2H-indazol-2-yl)ethyl]-4-pentafluorothiobenzamide] was tested, and the motility inhibition (Haemonchus contortus; test concentration 0.0025 ppm) was “at least 90%”.

With `CC(C#N)(Cn1cc2ncc(Br)cc2n1)NC(=O)c1ccc(S(F)(F)(F)(F)F)cc1` (stereo not drawn) [Compound 3.029, N-[2-(6-Bromo-2H-pyrazolo[4,3-b]pyridin-2-yl)-1-cyano-1-methylethyl]-4-pentafluorothiobenzamide] the motility inhibition (Haemonchus contortus; test concentration 0.01 ppm) was “at least 90%”.

`CC(C#N)(Cn1cc2cc(Br)cnc2n1)NC(=O)c1ccc(SC(F)(F)F)cc1` (stereo not drawn) [Compound 5.002, N-[2-(5-Bromo-2H-pyrazolo[3,4-b]pyridin-2-yl)-1-cyano-1-methylethyl]-4-trifluoromethylthiobenzamide] was tested, and the motility inhibition (Haemonchus contortus; test concentration 0.6 ppm) was “at least 90%”.
